This note sets out measurements from article PMC10914734 (Signal Transduction and Targeted Therapy, 2024).

For orientation: IC50 means the point on the concentration scale where inhibition reaches its midpoint. A higher IC50 goes with a need for much substance. Broadly, the inhibition is the change of the read-out against control, counted positive when it falls.

The target of one test is T1, Human CAPN1 (Homo sapiens, UniProt P07384).
T1 sequence (P07384 2-714 limits assumed): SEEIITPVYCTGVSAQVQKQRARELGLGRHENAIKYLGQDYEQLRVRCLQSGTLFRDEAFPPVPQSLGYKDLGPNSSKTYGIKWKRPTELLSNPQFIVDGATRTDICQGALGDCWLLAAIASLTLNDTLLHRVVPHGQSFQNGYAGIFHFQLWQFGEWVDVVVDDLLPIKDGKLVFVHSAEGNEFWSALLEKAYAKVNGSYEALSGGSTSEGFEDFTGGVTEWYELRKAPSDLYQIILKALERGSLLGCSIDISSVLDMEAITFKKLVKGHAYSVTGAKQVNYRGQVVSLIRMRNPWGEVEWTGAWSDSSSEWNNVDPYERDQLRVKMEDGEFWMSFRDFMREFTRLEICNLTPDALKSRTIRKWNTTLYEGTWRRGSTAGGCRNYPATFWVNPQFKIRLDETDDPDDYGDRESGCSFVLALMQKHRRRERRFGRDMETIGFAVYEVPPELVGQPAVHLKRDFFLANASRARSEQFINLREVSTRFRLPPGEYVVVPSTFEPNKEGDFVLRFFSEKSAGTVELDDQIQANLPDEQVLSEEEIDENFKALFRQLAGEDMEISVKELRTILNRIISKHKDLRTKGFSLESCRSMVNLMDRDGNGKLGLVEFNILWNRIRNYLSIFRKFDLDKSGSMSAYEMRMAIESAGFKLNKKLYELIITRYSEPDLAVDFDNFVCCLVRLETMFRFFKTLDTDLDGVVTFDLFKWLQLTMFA
T1 sequence (P04632 1-268 partner): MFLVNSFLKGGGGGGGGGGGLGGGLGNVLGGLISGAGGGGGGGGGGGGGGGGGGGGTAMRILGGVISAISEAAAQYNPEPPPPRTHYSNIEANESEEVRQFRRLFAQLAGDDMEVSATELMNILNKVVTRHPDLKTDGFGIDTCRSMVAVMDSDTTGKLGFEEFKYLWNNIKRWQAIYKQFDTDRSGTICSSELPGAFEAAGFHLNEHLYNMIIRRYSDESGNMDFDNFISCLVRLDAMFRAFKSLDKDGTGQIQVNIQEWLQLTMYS
Kind of test: biochemical.

The next test addresses Human Thrombin (Homo sapiens, UniProt P00734). Kind of test: Protease panel, thrombin inhibition. To be noted: at a concentration of 20 μM; read-out: Inhibition rate, Human Thrombin. On the procedure: Enzymatic activity and inhibition assays of both compounds against the remaining proteases in Supplementary Table S2 were measured by a commercial company.

SMILES strings stand for the structures.

Molecule `O=C(NCc1ccccc1)C(=O)[C@H](C[C@@H]1CCCNC1=O)NC(=O)[C@H](Cc1ccc(F)cc1)NC(=O)c1cc2ccccc2o1` [14a, N-((S)-1-(((S)-4-(benzylamino)-3,4-dioxo-1-((S)-2-oxopiperidin-3-yl)butan-2-yl)amino)-3-(4-fluorophenyl)-1-oxopropan-2-yl)benzofuran-2-carboxamide] came in with an IC50 against Human CAPN1 of 375 ± 49.8 nM. Further, the inhibition at 20 µM at Human Thrombin is 9 ± 3%.
On the same counts, the results for `O=C(NCc1ccccc1)C(=O)[C@H](C[C@@H]1CCCNC1=O)NC(=O)[C@H](CC1CCCCC1)NC(=O)c1cc2ccccc2o1` [14b, N-((S)-1-(((S)-4-(benzylamino)-3,4-dioxo-1-((S)-2-oxopiperidin-3-yl)butan-2-yl)amino)-3-cyclohexyl-1-oxopropan-2-yl)benzofuran-2-carboxamide] are 348 ± 34 nM and 4 ± 1%.
